# The whole screen tested about 50,000 compounds, of which about 800 (1.6%) showed an effect of 50% or more. This is one part of the list.
# Biological target: Bcl-2-like protein 10 (Homo sapiens) (UniProt Q9HD36)
# Assay: Phenotype converters, Bcl-B/TR3 peptide binding displacement, primary biochemical FP (AID 1240);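 also: 0% = Bcl-B with tracer peptide and DMSO and 100% = tracer peptide lacking Bcl-B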
# Settings: GST-Bcl-B / FITC-TR3 peptide fluorescence polarization; stronger effect = higher value; compound at 3.75 mg/L
# Chain of UniProt Q9HD36 (Q9HD36 whole entry, looked up): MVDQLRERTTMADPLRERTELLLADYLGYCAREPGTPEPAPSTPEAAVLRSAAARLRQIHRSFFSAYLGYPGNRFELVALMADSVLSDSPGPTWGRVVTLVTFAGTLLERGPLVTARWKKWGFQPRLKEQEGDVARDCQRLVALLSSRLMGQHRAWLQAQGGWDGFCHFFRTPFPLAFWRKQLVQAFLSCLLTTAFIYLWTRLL
row,Structure (SMILES),displacement [%]
1,C=CCNC(=O)C(=O)NCc1ccccc1,7.6
2,CCOC(=O)/C(C#N)=C/c1c(OCC)n(CC)c2ccccc12,5.8
3,CC(C)CC(=O)N1c2ccccc2NC2=C(C(=O)CC(C)(C)C2)C1c1cccs1 (stereo unspecified),-8.6
4,O=C(O)/C=C/C(=O)Nc1ccc2c(c1)C(=O)c1ccccc1C2=O,-21
5,CCn1c2ccccc2c2cc(NC(=O)Cc3cccs3)ccc21,-4.5
6,Cc1ccccc1N1C(=O)c2ccc(C(=O)Nc3ccc(O)cc3)cc2C1=O,-3.2
7,c1ccc(N(c2ccccc2)c2nc(-n3cnc4ccccc43)nc(-n3cnc4ccccc43)n2)cc1,10
8,Cc1cccc(NC(=O)CN(c2cccc(Cl)c2)S(C)(=O)=O)c1,3.9
9,CCOc1ccc(-c2cc(C(=O)N/N=C/c3ccc(C(=O)OC)cc3)[nH]n2)cc1,-5.4
10,Cc1ccc(N2C(=O)C3C(c4cccc(F)c4)OC4(C(=O)c5ccccc5C4=O)C3C2=O)cc1 (stereo unspecified),11.3
11,COC(=O)C1=C(O)/C(=C\c2ccc(OCc3ccccc3)cc2)N=C1C,-13.4
12,COc1ccc(C2/C(=C(\O)c3ccc([N+](=O)[O-])cc3)C(=O)C(=O)N2CCCCCC(=O)O)c(OC)c1 (stereo unspecified),0
13,Cc1ccc(OCC(=O)Nc2ccc3oc(-c4cccnc4)nc3c2)cc1,11
14,Cc1cccc(OCCCCN2CCCC2)c1,-3.5
15,O=C(NCCCO)C(=O)Nc1ccc(Cl)c(C(F)(F)F)c1,11.4
16,COc1ccc(OCC(O)CN2C(=O)c3ccccc3C2=O)cc1 (stereo unspecified),2.5
17,O=C(COc1ccc2ccccc2c1)NNC(=O)c1ccccc1Cl,-2
18,CC(=O)Oc1ccc(-c2cccc(C(=O)N3CCOCC3)c2)cc1,7.3
19,CC(C)(C)C(=O)NC(NC(=S)Nc1ccccc1)C(Cl)(Cl)Cl (stereo unspecified),6
20,CCOc1cccc(C=Nc2cccc3nsnc23)c1O,-1.6
21,O=S(=O)(c1ccc(F)cc1)N1CCC(Cc2ccccc2)CC1,-14.7
22,CCOC(=O)C1=C(C)N(c2ccc(OCC)cc2)C(=O)/C1=C\c1ccco1,-87.8
23,CCOC(=O)c1cnn2c(C)cc(C)nc12,-4
24,CCCC(=O)Nc1cccc(NC(=O)c2cc([N+](=O)[O-])ccc2Cl)c1,-1.1

row,Structure (SMILES),displacement [%]
1,O=C1CC(c2ccccc2)CC(O)=C1C=Nc1ccc(F)cc1 (stereo unspecified),-1.2
2,COc1ccc(CN2CCN(C(=O)c3cccc(Cl)c3)CC2)cc1,-5.7
3,CC1(C)Cc2ccccc2C(Nn2cnnc2)=N1,4.8
4,COc1ccc(N2C(=O)/C(=C\C(Br)=C\c3ccccc3)SC2=S)cc1,5.6
5,CC1=C(C(=O)OCCc2ccccc2)C(c2ccccc2F)CC(=O)N1 (stereo unspecified),-9.7
6,Cc1ccc(N2C(=O)c3ccccc3C2=O)cc1[N+](=O)[O-],2.6
7,CSc1ccccc1NC(=O)CC1Nc2cc(C)c(C)cc2NC1=O (stereo unspecified),-41.6
8,C=CCc1ccccc1OCCOc1ccc(Cl)cc1/C=C1/SC(=S)N(C)C1=O,6
9,N#Cc1c(-c2ccc(F)cc2)c(C#N)c2nc3ccccc3n2c1N,-8
10,COC(=O)c1c(-c2ccc(OC)cc2OC)csc1N,3.5
11,O=C1OC(c2ccc(Cl)cc2)=C/C1=C\c1ccc(F)cc1,-12.7
12,COc1ccc(CCNc2nc3c(c(=O)n(C)c(=O)n3C)n2C)cc1OC,-3
13,COC(=O)c1ccc(Cl)c(NC(=O)C23CC4CC(C)(CC(C)(C4)C2)C3)c1,0.2
14,CC(C)(C)C(=O)COc1ccc2c(-c3ccccc3)cc(=O)oc2c1,9.8
15,CN(C)/C=C/C=C1\CC(=O)N(c2ccccc2)C1=O,5.5
16,CC(=O)c1ccc(NC(=O)CSc2nnc(NC(=O)CN3CCOCC3)s2)cc1,-28
17,CCC(=O)Nc1ccc2nn(-c3ccc(Cl)cc3)nc2c1,-5.1
18,Cc1cc(=O)[nH]nc1-c1ccc(Cl)c([N+](=O)[O-])c1,-6
19,Cc1cc2c(cc1C)NC(c1cccc(C(F)(F)F)c1)C1=C(CC(C)(C)CC1=O)N2 (stereo unspecified),-15
20,O=C(/C=C/c1ccc(OCc2ccccc2)cc1)c1ccc2c(c1)OCCO2,16.8
21,Cc1cccc(OCC(=O)Nc2cc3c(C)cc(=O)oc3cc2C)c1,5
22,COC(=O)c1ccc(/C=C2\SC(=S)N(C(Cc3ccccc3)C(=O)O)C2=O)cc1 (stereo unspecified),6.6
23,CC1=Nc2ccccc2/C1=C/c1c(O)n(-c2ccc(Cl)cc2)c(=O)[nH]c1=O,-7.4
24,COc1ccc(C(=O)N2CCN(Cc3cccc(Cl)c3)CC2)cc1,6.3

row,Structure (SMILES),displacement [%]
1,Cc1cc(NC(=O)c2cccnc2)ccc1Br,5.6
2,COc1cc(C=O)ccc1OCc1c(C)no[n+]1[O-],-4.6
3,Nc1nonc1C(=O)N/N=C/c1cc(Cl)cc(Cl)c1O,9
4,CC(C)Oc1ccc(Cc2n[nH]c(=S)n2-c2ccccc2)cc1,-0.4
5,COc1ccc(CCNC(=O)C2CC2(c2cccc(C)c2)c2cccc(C)c2)cc1OC (stereo unspecified),-5.8
6,O=C(Nc1ccc(Oc2ccccc2)cc1)c1ccc([N+](=O)[O-])cc1,1.2
7,O=C(NC(=S)Nc1ccc(N2CCOCC2)c(Cl)c1)c1ccco1,10.7
8,COCCNC(=O)COc1ccc(Cl)cc1,8.9
9,C=CCNC(=O)CSc1nc2sc3c(c2c(=O)[nH]1)CCCC3,-55.1
10,O=C(NCc1ccco1)Nc1ccc(Br)cc1,-6.8
11,C=CCc1ccccc1OCCSc1nc2ccc(N)cc2s1,-10.9
12,CN(C1=NC(=O)SC1)c1ccc(O)cc1,16.3
13,Brc1ccc(/C=N/c2nc3c(s2)CCCC3)cc1,6.5
14,COc1ccccc1NC(=O)c1cc2c(ccc3ccccc32)oc1=O,-0.9
15,O=C(COc1ccc(Br)cc1)Nc1ccccc1CO,-1
16,CSc1ccc(S(=O)(=O)N(CC(=O)N2CCC(C)CC2)c2ccc(C)cc2)cc1,-3
17,COc1cc(C(=O)N2CCN(C(=O)COc3ccc(Cl)cc3)CC2)cc(OC)c1OC,-12.7
18,Oc1ccc(Nc2nc(-c3ccc(Br)cc3)cs2)cc1,7.3
19,COc1ccccc1N/N=C(/C#N)C(=N)N1CCCCC1,4.4
20,CC1CC/C(=C\C=C\N(C)C)C(=O)/C1=C/C=C/N(C)C (stereo unspecified),22.9
21,COc1cc2c(cc1NC(=O)COc1ccc(Cl)cc1C)oc1ccccc12,-11.5
22,O=C1CSC2=NCN(c3cccc(Cl)c3)CN12,-4.6
23,CCOc1ccc(N(CC(=O)NC2CCCCC2)S(=O)(=O)c2ccc(Cl)cc2)cc1,-1

# Reference: PubChem BioAssay AID1240 (Sanford-Burnham Center for Chemical Genomics, 2008)
